# In all, about 2,900 compounds were measured (“NF-kB SEAP reporter activity, fold change vs agonist alone”: median about 0.99, highest 2% from about 2.6 on). This is one part of the list.
# Experiments:
# RAW-Dual [1] = assay: NF-kB SEAP reporter activity, fold change vs agonist alone; higher = enhanced NF-kB activity; conditions: library stock concentration (final ~1000-fold dilution): 10 mM
# In short: (§1)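 After 50 nL of library stock was delivered by pin tool to RAW-Dual macrophages (50,000 cells/well, DMEM, 384-well plates), a PRR agonist was added 1 h later and the plates were kept at 37 °C, 5% CO2. Twenty hours later, IRF was read from supernatant by QuantiLuc luminescence and NF-κB by QuantiBlue absorbance at 620 nm. Reporter activity is stated as fold change over agonist-alone wells. Wells with IncuCyte confluency under 70% of agonist controls in both mask sets were counted as cytotoxic.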
# RAW-Dual [2] = assay: NF-kB SEAP reporter activity, fold change vs agonist alone; cytotoxicity flag (confluency mask): cytotoxic (confluency <70% of control); higher = enhanced NF-kB activity
# In short: as §1
# RAW-Dual [3] = assay: NF-kB SEAP reporter activity, fold change vs agonist alone; cytotoxicity flag (confluency mask): not cytotoxic; higher = enhanced NF-kB activity
# In short: as §1
# [4] = cytotoxicity flag (confluency mask): cytotoxic (confluency <70% of control), agonist: Imiquimod (TLR7) […]
# [5] = cytotoxicity flag (confluency mask): cytotoxic (confluency <70% of control), agonist: MPLA (TLR4) […]
# [6] = agonist: ODN 1826 (TLR9) 0.5 ug/mL
# [7] = agonist: Pam2CSK4 (TLR2/6) 0.1 ug/mL
# [8] = agonist: Pam3CSK4 (TLR2/1) 0.1 ug/mL
# [9] = cytotoxicity flag (confluency mask): not cytotoxic, agonist: Imiquimod (TLR7) […]
# [10] = cytotoxicity flag (confluency mask): not cytotoxic, agonist: MPLA (TLR4) […]
smiles,measurement,setting,value
CCN(CC)CCCC(C)Nc1c2ccc(Cl)cc2nc2ccc(OC)cc12.Cl.Cl (configuration not stated),NF-kB SEAP reporter activity,RAW-Dual [1]; [4],0.24
same,NF-kB SEAP reporter activity,RAW-Dual [1]; [5],0.536
CCN(CC)CCCC(C)Nc1c2ccc(Cl)cc2nc2ccc(OC)cc12.Cl.Cl (configuration not stated) (library stock concentration (final ~1000-fold dilution): 10 mM),NF-kB SEAP reporter activity,RAW-Dual [2]; agonist: LPS (TLR4) 0.1 ug/mL,0.204
same,NF-kB SEAP reporter activity,RAW-Dual [2]; [6],0.174
same,NF-kB SEAP reporter activity,RAW-Dual [2]; [7],0.0921
same,NF-kB SEAP reporter activity,RAW-Dual [2]; [8],0.216
COCCNC(=O)Nc1ccc2nc(-c3cccs3)c(-c3cccs3)nc2c1 (library stock concentration (final ~1000-fold dilution): 10 mM),NF-kB SEAP reporter activity,RAW-Dual [2]; agonist: LPS (TLR4) 0.1 ug/mL,0.606
same,NF-kB SEAP reporter activity,RAW-Dual [2]; [6],0.322
same,NF-kB SEAP reporter activity,RAW-Dual [2]; [7],0.0902
same,NF-kB SEAP reporter activity,RAW-Dual [2]; [8],0.284
COCCNC(=O)Nc1ccc2nc(-c3cccs3)c(-c3cccs3)nc2c1,NF-kB SEAP reporter activity,RAW-Dual [1]; [4],0.238
same,NF-kB SEAP reporter activity,RAW-Dual [1]; [5],0.305
CC(C)c1ccccc1Cc1cc(C(=O)Nc2ccc(S(=O)(=O)c3ccccc3C(C)(C)C)cc2)c(O)c(O)c1O,NF-kB SEAP reporter activity,RAW-Dual [1]; [9],2.56
same,NF-kB SEAP reporter activity,RAW-Dual [1]; [10],2.31
CC(C)c1ccccc1Cc1cc(C(=O)Nc2ccc(S(=O)(=O)c3ccccc3C(C)(C)C)cc2)c(O)c(O)c1O (library stock concentration (final ~1000-fold dilution): 10 mM),NF-kB SEAP reporter activity,RAW-Dual [3]; agonist: LPS (TLR4) 0.1 ug/mL,2.37
same,NF-kB SEAP reporter activity,RAW-Dual [3]; [6],1.67
same,NF-kB SEAP reporter activity,RAW-Dual [3]; [7],0.541
same,NF-kB SEAP reporter activity,RAW-Dual [3]; [8],1
Cc1cc(C(=O)Nc2nc3cccc(Cl)c3n2C2CCCCN(C(=O)/C=C/CN(C)C)C2)ccn1 (configuration not stated),NF-kB SEAP reporter activity,RAW-Dual [1]; [9],0.218
same,NF-kB SEAP reporter activity,RAW-Dual [1]; [10],0.678
Cc1cc(C(=O)Nc2nc3cccc(Cl)c3n2C2CCCCN(C(=O)/C=C/CN(C)C)C2)ccn1 (configuration not stated) (library stock concentration (final ~1000-fold dilution): 10 mM),NF-kB SEAP reporter activity,RAW-Dual [3]; agonist: LPS (TLR4) 0.1 ug/mL,0.403
same,NF-kB SEAP reporter activity,RAW-Dual [3]; [6],0.168
same,NF-kB SEAP reporter activity,RAW-Dual [3]; [7],0.098
same,NF-kB SEAP reporter activity,RAW-Dual [3]; [8],0.15
CC(CN1c2ccccc2Sc2ccccc21)N(C)C.Cl (configuration not stated),NF-kB SEAP reporter activity,RAW-Dual [1]; [9],1.81
same,NF-kB SEAP reporter activity,RAW-Dual [1]; [10],1.24
CC(CN1c2ccccc2Sc2ccccc21)N(C)C.Cl (configuration not stated) (library stock concentration (final ~1000-fold dilution): 10 mM),NF-kB SEAP reporter activity,RAW-Dual [3]; agonist: LPS (TLR4) 0.1 ug/mL,0.982
same,NF-kB SEAP reporter activity,RAW-Dual [3]; [6],0.911
same,NF-kB SEAP reporter activity,RAW-Dual [3]; [7],0.74
same,NF-kB SEAP reporter activity,RAW-Dual [3]; [8],0.803
CN(C)S(=O)(=O)c1ccc2c(c1)/C(=C/c1cc3c([nH]1)CCCC3)C(=O)N2,NF-kB SEAP reporter activity,RAW-Dual [1]; [9],1.08
same,NF-kB SEAP reporter activity,RAW-Dual [1]; [10],0.662
CN(C)S(=O)(=O)c1ccc2c(c1)/C(=C/c1cc3c([nH]1)CCCC3)C(=O)N2 (library stock concentration (final ~1000-fold dilution): 10 mM),NF-kB SEAP reporter activity,RAW-Dual [3]; agonist: LPS (TLR4) 0.1 ug/mL,0.938
same,NF-kB SEAP reporter activity,RAW-Dual [3]; [6],1.46
same,NF-kB SEAP reporter activity,RAW-Dual [3]; [7],0.81
same,NF-kB SEAP reporter activity,RAW-Dual [3]; [8],1.09
O=C(O)CC(=O)C(=O)O (library stock concentration (final ~1000-fold dilution): 10 mM),NF-kB SEAP reporter activity,RAW-Dual [3]; agonist: LPS (TLR4) 0.1 ug/mL,1.22
same,NF-kB SEAP reporter activity,RAW-Dual [3]; [6],0.938
same,NF-kB SEAP reporter activity,RAW-Dual [3]; [7],1.07
same,NF-kB SEAP reporter activity,RAW-Dual [3]; [8],0.964
O=C(O)CC(=O)C(=O)O,NF-kB SEAP reporter activity,RAW-Dual [1]; [9],0.891
same,NF-kB SEAP reporter activity,RAW-Dual [1]; [10],1.04
Cc1ccc(C2OC(CO)C(O)C(O)C2O)cc1Cc1ccc(-c2ccc(F)cc2)s1.Cc1ccc(C2OC(CO)C(O)C(O)C2O)cc1Cc1ccc(-c2ccc(F)cc2)s1.O (configuration not stated),NF-kB SEAP reporter activity,RAW-Dual [1]; [4],2.07
same,NF-kB SEAP reporter activity,RAW-Dual [1]; [5],0.351
Cc1ccc(C2OC(CO)C(O)C(O)C2O)cc1Cc1ccc(-c2ccc(F)cc2)s1.Cc1ccc(C2OC(CO)C(O)C(O)C2O)cc1Cc1ccc(-c2ccc(F)cc2)s1.O (configuration not stated) (library stock concentration (final ~1000-fold dilution): 10 mM),NF-kB SEAP reporter activity,RAW-Dual [2]; agonist: LPS (TLR4) 0.1 ug/mL,0.276
same,NF-kB SEAP reporter activity,RAW-Dual [2]; [6],0.801
same,NF-kB SEAP reporter activity,RAW-Dual [2]; [7],1.01
same,NF-kB SEAP reporter activity,RAW-Dual [2]; [8],0.957
COc1ccc(Cl)c(Nc2nc3ccccc3nc2NS(=O)(=O)c2cccc(NC(=O)C(C)(C)N)c2)c1,NF-kB SEAP reporter activity,RAW-Dual [1]; [4],1.18
same,NF-kB SEAP reporter activity,RAW-Dual [1]; [5],1.19
COc1ccc(Cl)c(Nc2nc3ccccc3nc2NS(=O)(=O)c2cccc(NC(=O)C(C)(C)N)c2)c1 (library stock concentration (final ~1000-fold dilution): 10 mM),NF-kB SEAP reporter activity,RAW-Dual [2]; agonist: LPS (TLR4) 0.1 ug/mL,1.3
same,NF-kB SEAP reporter activity,RAW-Dual [2]; [6],0.767
same,NF-kB SEAP reporter activity,RAW-Dual [2]; [7],0.79
same,NF-kB SEAP reporter activity,RAW-Dual [2]; [8],0.81
COc1cc(-c2ncn(/C=C\C(=O)OC(C)C)n2)cc(C(F)(F)F)c1 (library stock concentration (final ~1000-fold dilution): 10 mM),NF-kB SEAP reporter activity,RAW-Dual [2]; agonist: LPS (TLR4) 0.1 ug/mL,0.272
same,NF-kB SEAP reporter activity,RAW-Dual [2]; [6],0.99
same,NF-kB SEAP reporter activity,RAW-Dual [2]; [7],0.411
same,NF-kB SEAP reporter activity,RAW-Dual [2]; [8],0.287
COc1cc(-c2ncn(/C=C\C(=O)OC(C)C)n2)cc(C(F)(F)F)c1,NF-kB SEAP reporter activity,RAW-Dual [1]; [4],2.31
same,NF-kB SEAP reporter activity,RAW-Dual [1]; [5],0.454
COc1ccc(-c2nc(N3CCOCC3)c3sc(CN(C)c4ncc(C(=O)NO)cn4)cc3n2)cn1,NF-kB SEAP reporter activity,RAW-Dual [1]; [4],2.88
same,NF-kB SEAP reporter activity,RAW-Dual [1]; [5],2.66
COc1ccc(-c2nc(N3CCOCC3)c3sc(CN(C)c4ncc(C(=O)NO)cn4)cc3n2)cn1 (library stock concentration (final ~1000-fold dilution): 10 mM),NF-kB SEAP reporter activity,RAW-Dual [2]; agonist: LPS (TLR4) 0.1 ug/mL,4.34
same,NF-kB SEAP reporter activity,RAW-Dual [2]; [6],2.1
same,NF-kB SEAP reporter activity,RAW-Dual [2]; [7],1.3
same,NF-kB SEAP reporter activity,RAW-Dual [2]; [8],1.6
O=C(Cc1ccccc1)Nc1nnc(CCSCCc2nnc(NC(=O)Cc3ccccc3)s2)s1 (library stock concentration (final ~1000-fold dilution): 10 mM),NF-kB SEAP reporter activity,RAW-Dual [3]; agonist: LPS (TLR4) 0.1 ug/mL,1.04
same,NF-kB SEAP reporter activity,RAW-Dual [3]; [6],0.939
same,NF-kB SEAP reporter activity,RAW-Dual [3]; [7],0.585
same,NF-kB SEAP reporter activity,RAW-Dual [3]; [8],0.733
O=C(Cc1ccccc1)Nc1nnc(CCSCCc2nnc(NC(=O)Cc3ccccc3)s2)s1,NF-kB SEAP reporter activity,RAW-Dual [1]; [9],0.885
same,NF-kB SEAP reporter activity,RAW-Dual [1]; [10],1.25

# Reference: the supplement of paper PMC10037445
